Source: publication PMC3179854

Substrate: COc1ccc2c(c1)[C@]13CCCC[C@@H]1[C@H](C2)N(C)CC3
Test: not read
Settings: other: CYP3A4, Michaelis-Menten fit

B1: CYP3A4 (Homo sapiens) (protein)
chain: MALIPDLAMETWLLLAVSLVLLYLYGTHSHGLFKKLGIPGPTPLPFLGNILSYHKGFCMFDMECHKKYGKVWGFYDGQQPVLAITDPDMIKTVLVKECYSVFTNRRPFGPVGFMKSAISIAEDEEWKRLRSLLSPTFTSGKLKEMVPIIAQYGDVLVRNLRREAETGKPVTLKDVFGAYSMDVITSTSFGVNIDSLNNPQDPFVENTKKLLRFDFLDPFFLSITVFPFLIPILEVLNICVFPREVTNFLRKSVKRMKESRLEDTQKHRVDFLQLMIDSQNSKETESHKALSDLELVAQSIIFIFAGYETTSSVLSFIMYELATHPDVQQKLQEEIDAVLPNKAPPTYDTVLQMEYLDMVVNETLRLFPIAMRLERVCKKDVEINGMFIPKGVVVMIPSYALHRDPKYWTEPEKFLPERFSKKNKDNIDPYIYTPFGSGPRNCIGMRFALMNMKLALIRVLQNFSFKPCKETQIPLKLSLGGLLQPEKPVVLKVESRDGTVSGA
B1 gave a Km of 106 ± 64 µM and a kcat of 0.633 ± 0.133 s⁻¹.
